Laboratory results: PubChem BioAssay AID504706 (National Center for Advancing Translational Sciences (NCATS), 2011)
Among all 320,000 compounds or so, about 200 (0.062%) were called active. This list was built around the results that the source calls inconclusive (neither active nor inactive); the mix of calls is not that of the screen. Calls follow the shape of the dose curve; as a rule, active = well fitted activation curve with a large enough effect; inconclusive = small, poorly fitted or top-dose-only effect; inactive = no such curve, though single readings can be large or run the other way. No potency is given beside an inconclusive call; the fits are too rough.

Assay: qHTS assay for re-activators of p53 using a Luc reporter; also: nearly all actives have a fitted effect of over 45% in size; as to activity change, positive = activation: % of control where 0% means no effect
Conditions: H1299 p53-A138V BP100-luciferase reporter, luminescence, 24 h; series mostly up to 92.2 µM; activity change, positive = activation: at the top concentration
Method in brief: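 H1299 (p53-null), stable ts p53-A138V + BP100-Luc; 1000 cells/well, Opti-MEM/10% FBS; cpd 4 pt, 1:5; 24 h, 37 deg C, 5% CO2; detection reagent 10 min RT; luminescence.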
Potency is read from the fitted curve at half-maximal effect; tags tell the direction and shape of the fitted curve.

SMILES	activity change, positive = activation	Potency
Cc1cc(C(=O)NC2CCCc3c2cnn3-c2ccc(C)c(C)c2)no1 (centres undefined)	inactive: -2.21%	
Cc1[nH]n(-c2ccccc2)c(=O)c1/C=N\NC(=O)C1COc2ccccc2O1 (centres undefined)		inconclusive [activator, partial curve, poor fit]
CC(C)c1nnc(NC(=O)c2cccc(NC(=O)C(F)(F)F)c2)s1	inactive: 5.67%	
Cc1nnc(NC(=O)CSCc2ccccc2)s1	inactive: -3.02%	
Cc1nc2nc(Cc3ccccc3)[nH]n2c(=O)c1Cl	inactive: -0.982%	
COc1cccc2cc(-c3csc(NC(=O)CCC(=O)NCCCN4CCC(C)CC4)n3)c(=O)oc12	inactive: 18%	
COc1ccc(NC(=S)Nc2cc(C)ccn2)c(OC)c1		inconclusive [activator, full curve, poor fit]
Cc1cccc2sc(NC(=O)C3CCN(S(=O)(=O)c4cc([N+](=O)[O-])ccc4Cl)CC3)nc12		inconclusive [activator, partial curve, poor fit]
O=C(CSc1ccccc1F)Nc1ccc2c(c1)OCO2		inconclusive [activator, partial curve, poor fit]
CCC(=O)Nc1nc(C)c(-c2csc(Nc3cccc(O)c3)n2)s1		active: 28.2 µM
COc1ccccc1NC(=O)CCN1C(=O)C2C3CCC(C3)C2C1=O (centres undefined)		inconclusive [activator, partial curve, poor fit]
CCn1cnc2sc(C(=O)Nc3ccc4c(c3)OCO4)c(C)c2c1=O		inconclusive [activator, partial curve, poor fit]
Cc1ccc(SCCC(=O)N2CCCC2)cc1	inactive: 25.8%	
O=C(Nc1ccc2c(c1)OCCO2)Nc1ccc2c(c1)OCO2	inactive: -8%	
COc1ccccc1OCC(=O)NCC1CCCN(Cc2cnn(C(C)C)c2)C1 (centres undefined)		inconclusive [activator, single point]
Fc1ccc2nc(Nc3nc4c(s3)CCCC4)sc2c1		inconclusive [activator, partial curve, poor fit]
COc1cc(/C=N/NC(=O)C(=O)N2CCCCCC2)ccc1O		inconclusive [activator, single point]
O=[N+]([O-])c1ccccc1/C=N/N1CCN(c2ccccn2)CC1		inconclusive [activator, single point]
CCCC(=O)OCC(=O)Nc1ccc(N=Nc2ccccc2)cc1		inconclusive [activator, partial curve]
Cc1cc(C(=O)NNC(=O)COc2ccccc2Cl)n[nH]1	inactive: 1.56%	
CCOC(=O)c1c(NC(=O)Cc2ccccc2)sc2c1CC(C)(C)NC2(C)C	inactive: 15.1%	
CC(=O)Nc1ccc(N=NC2C(=O)N(C(N)=S)N=C2C)cc1 (centres undefined)		inconclusive [activator, partial curve, poor fit]
C/C(N)=C(/C#N)C(=O)CSc1nc2ccccc2c(=O)n1Cc1ccc(C)cc1	inactive: -2.63%	

SMILES	activity change, positive = activation	Potency
O=C(COC(=O)c1ccccc1)Nc1ncc([N+](=O)[O-])s1		inconclusive [activator, partial curve, poor fit]
Cc1ccc(NC(=O)CSC2=C(C#N)C(c3ccco3)C3=C(CCCC3=O)N2)cc1 (centres undefined)		inconclusive [activator, single point]
O=C(/C=C/c1ccccc1Cl)Nc1cccc(S(=O)(=O)NC2=NCCCCC2)c1		inconclusive [activator, partial curve, poor fit]
COc1ccc(C(CNC(=O)c2ccco2)N2CCCC2)cc1 (centres undefined)		inconclusive [activator, full curve, poor fit]
COc1ccc(-c2coc3cc(OC(C)=O)c(OC)cc3c2=O)cc1		inconclusive [activator, partial curve, poor fit]
Cc1ccc2nc(NC(=O)COC(=O)CSc3nc(C)cc(C)n3)sc2c1		inconclusive [activator, full curve, poor fit]
Cc1ccc(-n2c(C)cc(C3=NNC(=NC4CC4)SC3)c2C)cc1C		inconclusive [activator, partial curve, poor fit]
Oc1ccc(-c2nc3ccccc3s2)c(O)c1		inconclusive [activator, partial curve, poor fit]
O=C(c1cc(-c2ccccc2O)on1)N1CCc2ccccc2C1		inconclusive [activator, partial curve, poor fit]
CCCCn1nnc(NC(=O)c2cc3ccccc3o2)n1		inconclusive [activator, partial curve, poor fit]
O=C(NCc1ccc(F)cc1)c1noc2c1CCCCC2	inactive: 20.9%	
COc1cc(NC2c3ccccc3C(=O)N2c2ccc(C)cn2)cc(OC)c1OC (centres undefined)		inconclusive [activator, partial curve, poor fit]
CCOc1ccc(CCNC(=O)c2cc(=O)[nH]c3ccc(S(=O)(=O)N(CC)CC)cc23)cc1OCC		inconclusive [activator, single point]
COc1ccc(-c2cnn(-c3ccccc3)c2N)cc1OC	inactive: 6.09%	
COc1ccc(/C=C/CN2CCC(Oc3ccc(C(=O)N4CCCCC4)cc3)CC2)cc1		inconclusive [activator, single point]
Cc1cccc(C(=O)Oc2ccc(/C=N/NC(=O)c3ccc(O)cc3)cc2)c1	inactive: 15.3%	
COc1cc(C(=O)OCC(=O)c2ccccc2)cc2c1OCCO2	inactive: 9.52%	
c1ccc(CNc2ncnc3c2ncn3C2CCCCO2)cc1 (centres undefined)		inconclusive [activator, full curve, poor fit]
COC(=O)c1ccc(COC(=O)c2cccn2C)o1		inconclusive [activator, partial curve, poor fit]
COc1ccc(C2CC(=O)C(C=NCCO)=C(O)C2)cc1OC (centres undefined)		inconclusive [activator, partial curve, poor fit]
O=C(COc1ccc(Cl)cc1)Nc1nc(-c2cccs2)cs1	inactive: 5.09%	
Cc1c(C(=O)N2CC(C)OC(C)C2)sc2nc(-c3ccccc3)cn12 (centres undefined)		inconclusive [activator, partial curve, poor fit]
CCCCC(=O)Nc1cc2nn(-c3ccc(OC)cc3)nc2cc1C		inconclusive [activator, partial curve, poor fit]

SMILES	activity change, positive = activation	Potency
Cc1ccc(-c2nc(NCc3ccco3)c3ccccc3n2)cc1		inconclusive [activator, partial curve, poor fit]
Cc1nc(SCC(=O)c2ccccc2)c([N+](=O)[O-])[nH]1		inconclusive [activator, single point]
O=C(NCc1ccccc1)c1onc(CSc2ccccc2)c1C(=O)NCC1CC1	inactive: -0.208%	
Cc1cccc(NC(=O)CNC(=O)Cc2ccc3c(c2)OCCO3)c1C	inactive: 12%	
CN(Cc1cn(-c2ccccc2)nc1-c1ccc(F)cc1)C(=O)CCC(=O)O	inactive: 1.14%	
COc1cccc(NC(=O)C2CCN(c3ncccn3)CC2)c1		inconclusive [activator, full curve, poor fit]
O=C(CCC1CCCCC1=O)c1ccccc1 (centres undefined)		inconclusive [activator, partial curve, poor fit]
O=C1c2ccccc2C(=O)N1CCCn1c(=O)oc2ccccc21		inconclusive [activator, single point]
N=c1c(C(=O)NC2CCCC2)cc2c(=O)n3ccccc3nc2n1CCN1CCOCC1		inconclusive [activator, single point]
Cc1ccc(NC(=O)c2ccc3ccccc3n2)nc1	inactive: 23.3%	
Cc1cc(/C=C2/C(=N)N3C(=NC2=O)SN=C3S(C)(=O)=O)c(C)n1-c1ccccc1F		inconclusive [activator, full curve, poor fit]
COc1ccc(/C=C/C(=O)NC(=S)Nc2ccc(N3CCN(C(C)=O)CC3)cc2)cc1	inactive: 0.398%	
Cc1ccc(/C=N/NC(=O)Nc2ccccc2)o1		inconclusive [activator, partial curve, poor fit]
Cc1ccc(OC(=O)c2cccc(S(=O)(=O)N3CCCC3)c2)c(-n2nc3ccccc3n2)c1		inconclusive [activator, partial curve, poor fit]
CCOc1ccccc1C1CC(=O)Nc2cc3c(cc21)OCCO3 (centres undefined)		inconclusive [activator, single point]
Cc1ccccc1-c1nc2ccccc2[nH]1		inconclusive [activator, partial curve, poor fit]
O=C(CCn1cnc2ccccc21)N/N=C/c1ccccc1O		inconclusive [activator, partial curve, poor fit]
CCCn1c(SCC(=O)NNC(=O)c2ccc(C)cc2)nnc1C(C)C	inactive: -0.0461%	
O=S(=O)(Oc1ccc(C(=S)N2CCOCC2)cc1)c1ccc(Cl)cc1	inactive: 8.2%	
CCCCn1c(N)c(N(CCOC)C(=O)c2cc3c(s2)CCC3)c(=O)[nH]c1=O	inactive: 7.77%	
CCN(C(=O)c1cc2c(=O)n3ccccc3nc2s1)C1CCCCC1	inactive: 4.1%	
CN(C)c1ccc(/C=C/c2cc[n+]([O-])cc2)cc1		inconclusive [activator, partial curve, poor fit]
Cc1cccc(/C=N/NC(=O)c2cc(Br)ccc2O)n1		inconclusive [activator, full curve, poor fit]
